# “And” between values parts separate entries of the source, which are not always exact repeats. Equal values may be shown once. Some of the results follow. Most values come without repeats; read them as rough.
# System: Candida albicans DPL-15
# Experiment: growth (OD600) after compound treatment (apparently relative to screen median) (relative growth (fraction; screen median 1.02)); DPL-15 is a caspofungin-resistant clinical isolate; higher = more fungal growth (less antifungal activity)
# Settings: 25 µM; RPMI 1640; 48 h; 30 °C
row,Structure (SMILES),growth
1,COC(=O)C1=C(C)N(Cc2cccc(C(F)(F)F)c2)C(=S)NC1c1cccc(Cl)c1 (stereo unspecified),0.881
2,COc1ccc(CN2C(=O)c3[nH]nc(CC(C)C)c3C2c2ccc(F)cc2)cc1 (stereo unspecified),0.945
3,CO[C@@H]1[C@H](O)CC[C@]2(O)CN(c3ccc4ncsc4c3)[C@@H](CC=C(C)C)[C@](C)(O)[C@@H]12,0.931
4,CC(=O)OC[C@H]1O[C@H](C#Cc2cccc(C)c2)C=C[C@@H]1OC(C)=O,0.869
5,O=C1N[C@H](c2ccccc2)CO/C=C\C=C\c2cccc(n2)C(=O)N2C[C@H](O)C[C@@H]12,1.05
6,Cc1nn(Cc2ccccc2)c2c1C(c1cccc(C(F)(F)F)c1)NC2=O (stereo unspecified),0.894
7,C=C(C)[C@]1(O)C[C@@H](C)[C@]2(O)[C@@H]3CCC4(OCCO4)[C@@]3(O[Si](C)(C)C)CC(C)=C[C@@]23O[C@@H]13,1.02
8,CC(C)CC1=NCC(C)(C)NC2=C1C(c1ccc3c(c1)OCO3)N(c1ccccc1)C2=O (stereo unspecified),1.01
9,C[C@H]1O[C@H]2C3=C(CCOC3=O)[C@@H]1[C@@H]1C(=O)N(Cc3ccccc3)C(=O)[C@@H]12,1.17
10,COc1ccc2c(c1)[C@@H](NC(=O)C(C)(C)C)[C@H](C)[C@H]2c1ccccc1,1.2
11,CO[C@@H]1[C@H](O)CC[C@]2(O)CN(CC3CCCCC3)[C@@H](CC=C(C)C)[C@](C)(O)[C@@H]12,1
12,COC(=O)C1=C(C)N(Cc2ccc(C(F)(F)F)cc2)C(NCc2cc(OC)c(OC)c(OC)c2)=NC1c1cccc(Cl)c1 (stereo unspecified),0.854
13,COc1ccc(OC[C@H]2C=C(C)C[C@@]3(O2)C(=O)N(Cc2ccccc2)c2ccccc23)cc1,0.909
14,CC(=O)C1=C2C=CCCN2C(=O)NC1c1ccnc(F)c1 (stereo unspecified),1.1
15,C#CCOC[C@@H](NC(=O)[C@@H]1C[C@@H](O)CN1C(=O)c1cccc(-c2ccccc2/C=N/NS(=O)(=O)c2ccc(C)cc2)c1)c1ccccc1,1.02
16,CC(C)C[C@@H]1NC(=O)C[C@@H]2C[C@H](C)[C@H](c3ccccc3)N2C1=O,1.03
17,COc1cccc(-c2cc(N)n(C)n2)c1,1.02
18,CC(C)Cc1nn(-c2ccc(OC(F)(F)F)cc2)c2c1C(c1ccccc1)NC2=O (stereo unspecified),0.937
19,COC(=O)C1=C(C(=O)OC)[C@@H](c2ccco2)O[C@@H]1c1ccccc1,1.11
20,COC(=O)C/C=C/[C@@H](C)[C@H](NC(=O)OCC(Cl)(Cl)Cl)c1ccccc1,0.919
21,C=CC[C@](C)(Nc1ccc(OC)cc1)C(=O)OCC,0.982

row,Structure (SMILES),growth
1,COCCN1C(=O)[C@H]2C[C@@]13O[C@H](c1ccccn1)N=C3C[C@H](c1ccccc1)[C@H]2C,1.04
2,COc1ccc(C#C[C@@H]2C=C[C@H](OC(C)=O)[C@@H](COC(C)=O)O2)cc1,0.884
3,Cc1cc(O)c2c(c1)OC(C=O)CC2=O (stereo unspecified),0.98
4,C=CCN1C(=O)C2=C(C(c3ccccc3)=NCCN2)C1c1ccccc1 (stereo unspecified),0.916
5,COc1cc2c(cc1OC)CN(CCc1ccc(NC(=O)c3cccc4c(=O)c5cccc(OCc6ccccc6)c5[nH]c34)cc1)CC2,0.933
6,CC(C)(C)NS(=O)(=O)OCCCc1ccccc1,1.1
7,COC(=O)c1[nH]c2ccccc2c1[C@]12CCN(C(=O)Cc3ccc(C)cc3)[C@H]1Nc1ccccc12,0.911
8,COc1ccc([C@]23Oc4cc(OC)cc(OC)c4[C@](O)([C@H](C(=O)OCc4ccccc4)[C@H]2c2ccccc2)[C@@H]3O)cc1,1.11
9,COc1ccccc1N1C(=O)c2[nH]nc(CC(C)C)c2C1c1ccsc1 (stereo unspecified),0.979
10,COc1ccc([C@H]2c3cc4c(cc3C[C@@H](C)[C@@H]2C)OCO4)cc1OC,1.15
11,c1cc2c3c(ccc4c3c1OCO4)OCO2,1.06
12,CC(C)c1nn(Cc2ccccc2)c2c1C(c1ccc3c(c1)OCO3)NC2=O (stereo unspecified),1.09
13,COc1ccc([C@@]23Oc4cc(OC)cc(OC)c4[C@]2(O)[C@@H]2OC(=O)[C@@H]2[C@H]3c2ccccc2)cc1,1 and 1.11
14,O=C(c1c(O)cc(O)cc1Nc1ccnn1Cc1ccoc1)N1Cc2ccccc2C1,1.03
15,COC(=O)c1cc2c(c3c4cc(OC)ccc4n(S(=O)(=O)c4ccc(OC)cc4)c13)C(=O)N(Cc1ccc(C)cc1)C2,0.99
16,c1ccc(COCn2c(-c3nc4nccnc4n3COCc3ccccc3)nc3nccnc32)cc1,1.04
17,COc1ccc(-c2oc3cc(OC)cc(OC)c3c(=O)c2O)cc1,active: 0.18
18,CCCc1cc2c(OC)ccc(O)c2c(=O)o1,1.03
19,COc1ccc(-c2ccc3c(n2)CCCN3)cc1,1.05
20,CC1(C)[C@H](CO)[C@@H]1COCc1ccccc1,1.29
21,CNCCOc1ccc2c(c1)O[C@@]1(c3ccc(Cl)cc3)[C@H](c3ccccc3)C[C@H](O)[C@@]21O,0.866

row,Structure (SMILES),growth
1,CC#Cc1cc(O)c(C)c(O)c1,1.1
2,CCOC(=O)C1C=CC=CC=C1,1.09
3,COc1cc(CNC(=O)CCCCc2ccccc2)ccc1O,0.934
4,CCNC1=NC(c2ccc(F)cc2)C(C(=O)OC)=C(C)N1Cc1cccc(C(F)(F)F)c1 (stereo unspecified),0.975
5,COC(=O)[C@@H]1[C@@H](c2ccccc2)[C@]2(c3ccc(OC)cc3)Oc3cc(OC)cc(OC)c3[C@@]23NC(C2CCC2)=N[C@@]13O,0.86
6,CO[C@@H]1[C@H](O)CC[C@]2(O)CN(c3ccc4c(c3)OCO4)[C@](C)([C@H](O)CC=C(C)C)[C@@H]12,0.868
7,CC(C)=CCc1cc(OCC(=O)NCC(=O)NCc2ccccc2O)cc2oc3cccc(O)c3c(=O)c12,1.08
8,COC(=O)[C@H]1[C@@H](O)[C@@]2(O)c3c(OC)cc(OS(=O)(=O)c4ccc(C)cc4)cc3O[C@@]2(c2ccc(OC)cc2)[C@@H]1c1ccccc1,1.11
9,COc1cccc(Oc2cc(F)c(F)cc2C(=O)O)c1OCc1ccccc1,1.04
10,COC(=O)C1=C(C)N(Cc2ccc(C(F)(F)F)cc2)C(NCc2ccncc2)=NC1c1ccc(Cl)cc1 (stereo unspecified),1.01
11,COC(=O)c1c(Br)cc(OC)cc1OC,1.01
12,O=C1N[C@H](c2ccccc2)COCc2cn[nH]c2-c2cccc(n2)C(=O)N2C[C@H](O)C[C@@H]12,1.09
13,COC(=O)[C@@H](N[C@H](/C=C/c1ccccc1)[C@@H](O)Cc1ccccc1)c1ccccc1,0.979
14,COC(=O)C1=C(C)[C@@]2(C)C[C@@H]3[C@@]4(C)CC[C@H](O)C(C)(C)[C@@H]4CC[C@@]3(C)[C@@](C)(C1=O)C2=O,1.08
15,c1ccc(CN2CCc3nc(-c4ccccc4)c(-c4ccccc4)cc3C2)cc1,0.962
16,CC(=O)C1=C(C)NC(=O)NC1c1ccccc1 (stereo unspecified),1.06
17,CCO[C@@H]1CCN(C(=O)c2c(O)cc(O)cc2Nc2cc(C)nn2C)C1,1.1
18,O=C(O)Cc1cccc2c(=O)c3ccccc3oc12,1.15
19,COc1cc(OC)c(C(=O)[C@@H]2CC=C(CCC=C(C)C)C[C@H]2c2ccccc2)c(OC)c1,1.07
20,COc1ccc(C2=C[C@@]3(c4ccc5c(c4)OCO5)[C@@H]4C(=O)[C@](C)(O)[C@@H](C=C4C(C)C)[C@H]3C2=O)cc1,1.19
21,CCCCCC#CCN1C(=O)NC(c2ccccc2)C(C(=O)OC)=C1C (stereo unspecified),0.954

row,Structure (SMILES),growth
1,C#CCC(C)(C)CNC(=O)CC1(CNC(=O)c2cccc(CO)c2)CCCCC1,1.02
2,COc1ccc(C2=C(C(=O)NCC(C)C)C3C(N2)C(=O)C[C@@H](c2ccccc2)[C@@H]3C)cc1 (stereo partly specified),0.962
3,COc1ccc(N2C(=O)c3[nH]nc(CC(C)C)c3C2C2CCCCC2)cn1 (stereo unspecified),0.966
4,CC(C)CCc1c(O)cc(O)c(C(=O)CC(C)C)c1O,1.09
5,OC1c2ccccc2-c2c1c1c3c(ccc4c3c2OCO4)OCO1 (stereo unspecified),0.9
6,C[C@H]1CC(O)=C2C(=O)c3c(O)cccc3O[C@@]2(C(=O)O)[C@@H]1O,1.83
7,CC(C)(C)NS(=O)(=O)NCCC1CCCC1,1.2
8,Cc1cc(C)cc(-n2nc(CC(C)C)c3c2C(=O)NC3c2ccc3c(c2)OCO3)c1 (stereo unspecified),0.746
9,Cc1cc(C)cc(-n2nc(C)c3c2C(=O)NC3c2ccc(Br)cc2)c1 (stereo unspecified),0.924
10,COC(=O)[C@@H]1[C@@H](C(=O)OC)[C@H](c2cc(OC)c(OC)c(OC)c2)[C@H]1c1cc(OC)c(OC)c(OC)c1,1.14
11,CC1=C[C@H](COc2ccc(Br)cc2)O[C@]2(C1)C(=O)Nc1ccccc12,0.809
12,CC(C)Cc1n[nH]c2c1C(c1cccc(C(F)(F)F)c1)NC2=O (stereo unspecified),0.719
13,COC(=O)C1=C(C)C(=O)[C@]2(O)Oc3c(C)c(O)c(C(=O)OC)c(C)c3[C@]2(C)C1=O,1.04
14,CCN1C(=O)N[C@@H](c2ccc(Br)cc2)C(C(C)=O)=C1C,0.976
15,CCN(CC)C(=O)c1c(O)cc(O)cc1Nc1cc(-c2ccccc2)nn1Cc1ccc(OC)cc1,0.979
16,COc1ccc(Cn2nc(C)cc2Nc2cc(O)cc(O)c2C(=O)N(C)CC=C(C)C)cc1,1.13
17,c1ccc(-c2nc3cnncc3[nH]2)cc1,1.16
18,C[Si](C)(C)C#Cc1cc(O)c2c(=O)c3ccccc3oc2c1,1.1
